About 530 (0.96%) of roughly 55,000 compounds were called active. The shares of active, inactive and inconclusive entries below differ from those in the screen. Calls come from the whole dose curve; as a rule, active = well fitted cell-killing curve with a large enough effect; inconclusive = small, poorly fitted or top-dose-only effect; inactive = no such curve, though single readings can be large or run the other way. Where the call is inconclusive, the potency comes from a doubtful curve fit.
test: qHTS Screen for Compounds that Selectively Target Cancer Cells with p53 Mutations: Cytotoxicity of p53 Null Cells at the Nonpermissive Temperature; conditions: H1299 p53-null (neo) cells, 39C, ATPlite viability, 24 h; series mostly up to 46.1 µM; note: nearly all actives have a fitted effect of over 50% in size
From the text: NIH Chemical Genomics Center [NCGC] NIH Molecular Libraries Screening Centers Network [MLSCN] MLSCN Grant: 1 X01 MH079844-01 Assay Submitter (PI): Dr. SUN, YI, University of Michigan NCGC Assay Overview: Synthetic Lethal Screen for Compounds to Kill Cancer Cells with p53 Mutation. Tumor suppressor gene p53 serves as a major cellular barrier against tumorigenesis. […] The goal of this screening is to identify small molecule probes that selectively kill cancer cells with mutations in p53. This screening was carried out using two lines of H1299 lung cancer cells. The H1299-p53 A138V line express a temperature sensitive p53 mutant (p53ts) in which the mutant p53 protein (A138V) is in the mutant confirmation when grown at 39C (the nonpermissive temperature) and in the wild type conformation when grown at 32C (the permissive temperature). A H1299-neo line (p53 null) grown at both 39C and 32C were used as counter-screens to filter out false positive associated with temperature shifting. The small molecular compounds that selectively target mutant p53-containing cancer cells were selected as candidate probes for further study. A cytotoxicity assay based on the measurement of ATP contents in cells was used in this screen. Concentration-responses of all the compounds in the library collection were determined in qHTS using the cell lines and temperature conditions as above.
NCGC Assay Protocol Summary: Both the H1299-p53A138V and H1299-neo cell lines were provided by Dr.Yi Sun, a PI at the University Michigan. The cells were maintained and cultured at 37C. The resuspended frozen cells were used to plate the cells in the 1536-well assay plates at a density of 600 cells per well in 5 ul medium. The assay plates with the cells were incubated at 37C for 16 to 30 hours before the experiments. The library compounds in DMSO solution were added to the cells in assay plates and incubated 24 hours at 39C (for mutant p53 conformation) or 32C (for normal p53 conformation as control). An ATP_lite assay kit (PerkinElmer) was used to determine the cell viability. Tomaxifen (100uM) was used as the positive control for cell killing. Data were normalized to the controls for basal activity (DMSO only) and 100% killing (100uM tamoxifen). AC50 values were determined from concentration-response data modeled with the standard Hill equation. P53 assay protocol: 1. Reagent; 5 uL H1299-p53A138V or H1299-neo cell cells/well 2. Time; overnight; 37C incubation 3. Compounds; 23 nL; 5.9 nM to 46 uM 4. Controls; 23 nL; Tamoxifen 100 uM 5. Time; 24 hr; 39C incubation 6. Reagent; 3 uL; ATP_Lite reagent 7. Time; 20 min; Room Temperature 8. Detection; Luminescence; Viewlux plate reader Keywords: p53, synthetic lethal, cancer, cell viability, cytotoxicity, H1299 cell line, luminescence, MLSMR, MLSCN, NIH Roadmap, qHTS, NCGC
Potency is the fitted concentration of half-maximal effect; tags give direction and shape of the fitted curve.

Compound | Potency
COc1ccccc1C1Nc2c(sc3nc(C)cc(C)c23)C(=O)N1c1ccccc1 (centres undefined) | inconclusive: 20 µM [cytotoxic, partial curve]
Cc1ccc(NC(=O)c2cnn3c(C(F)F)cc(-c4ccccc4)nc23)cc1F | inactive
O=C(Nc1ccc2nc(SCC(=O)N3CCc4ccccc43)sc2c1)c1ccc(F)cc1 | inconclusive: 6.31 µM [cytotoxic, partial curve, poor fit]
O=C(CCS(=O)(=O)c1cc2c(cc1Cl)NC(=O)CO2)NCc1ccccc1Cl | inconclusive: 0.891 µM [cytotoxic, full curve, poor fit]
CCc1ccc2c(c1)C1(NN=C(c3cccc4ccccc34)S1)C(=O)N2 (centres undefined) | inconclusive: 12.6 µM [cytotoxic, single point]
CCc1ccc2c(c1)C1(NN=C(c3ccc(C)cc3)S1)C(=O)N2 (centres undefined) | inconclusive: 15.8 µM [cytotoxic, single point]
COc1ccc(CNC(=O)CSc2nc3ccccc3nc2Cc2ccccc2OC)cc1 | inconclusive: 0.005 µM [cytotoxic, full curve, poor fit]
Nc1nc2ccc(O)cc2s1 | inactive
Cc1ccc(C2=Nc3ccccc3N(CC(=O)NCc3ccc(F)cc3)C(=O)C2)cc1C | inconclusive: 10 µM [cytotoxic, single point]
Cc1cc(C)cc(NS(=O)(=O)c2ccc3[nH]cc(C(=O)N(C)Cc4ccccc4)c(=O)c3c2)c1 | inconclusive: 22.4 µM [cytotoxic, single point]
CCOc1ccc2nc(NC(=O)CS(=O)(=O)c3ccc(Cl)cc3)sc2c1 | inconclusive: 8.91 µM [cytotoxic, partial curve, poor fit]
CC(=O)NCCNc1nc2c(S(=O)(=O)c3ccc(C)c(C)c3)nnn2c2ccc(Cl)cc12 | inconclusive: 14.1 µM [cytotoxic, single point]
Cc1ccccc1-c1noc(C(C)NC(=O)c2ccco2)n1 (centres undefined) | inconclusive: 12.6 µM [cytotoxic, partial curve]
CC(=O)N1CCCc2cc(S(=O)(=O)N3CCC(C(=O)NCc4ccc(N(C)C)cc4)CC3)ccc21 | inconclusive: 20 µM [cytotoxic, single point]
O=C(NCc1ccccc1)c1ccc(NC(=O)c2nsc3ccccc23)cc1 | inconclusive: 15.8 µM [cytotoxic, partial curve]
Cc1cccc(N2CCN(C(=O)CSCc3ccc(F)cc3)CC2)c1C | inactive
Cc1ccc(-c2c(C(=O)Nc3ccc(F)c(F)c3)oc(=O)c3ccccc23)cc1 | inconclusive: 3.16 µM [cytotoxic, single point]
Cc1ccc(Cn2c(-c3ccccc3)nc3ccccc32)cc1 | inconclusive: 14.1 µM [cytotoxic, single point]
Cc1oc(C)c2c(=O)cc(-c3ccc4c(c3)OCO4)cc(OC(=O)c3ccccc3Br)c12 | inconclusive: 20 µM [cytotoxic, single point]
CCOC(=O)C1CCN(CCC(=O)Nc2ccc(Br)c(C)c2)CC1 | inconclusive: 31.6 µM [cytotoxic, single point]
Cc1ccc(C(C)C)c(OCC(=O)N2CCC(c3nc4ccccc4o3)CC2)c1 | inconclusive: 35.5 µM [cytotoxic, single point]
CC(C)(C)c1ccc(OCC(=O)Nc2ccc(S(=O)(=O)Nc3ncccn3)cc2)cc1 | inactive

Compound | Potency
Cc1ccc(-n2nc(CO)c(C(=O)NCc3cccnc3)n2)cc1 | inconclusive: 31.6 µM [cytotoxic, single point]
CSc1ccc(C2c3c(oc4cc(C)cc(C)c4c3=O)C(=O)N2Cc2ccco2)cc1 (centres undefined) | inconclusive: 0.0501 µM [cytotoxic, full curve]
COc1ccc(OC)c(NS(=O)(=O)c2ccc(-c3cc(C)no3)s2)c1 | inconclusive: 15.8 µM [cytotoxic, partial curve]
CCOC(=O)C1=C(C)NC(=O)NC1c1ccc(OC(=O)c2ccco2)cc1 (centres undefined) | inconclusive: 14.1 µM [cytotoxic, single point]
CCCn1c(=NC(=O)c2cc3ccccc3o2)c(C(=O)OCC)cc2c(=O)n3ccccc3nc21 | inactive
COc1cc(C2c3c(-c4ccccc4O)n[nH]c3C(=O)N2Cc2ccco2)ccc1OCC(C)C (centres undefined) | inconclusive: 31.6 µM [cytotoxic, single point]
CCn1cc2c(n1)-c1c(oc(C(=O)Nc3cccc(C(F)(F)F)c3)c1C)CC2 | inconclusive: 1.26 µM [cytotoxic, full curve]
CC(C)Oc1ccc(C(=O)Nc2nnc(SCC(=O)N3CCOCC3)s2)cc1 | active: 0.631 µM
CCOC(=O)CSc1nnc2n(-c3ccccc3)c(=O)c3c4c(sc3n12)CC(C(C)(C)C)CC4 (centres undefined) | inconclusive: 31.6 µM [cytotoxic, single point]
CCCCCSc1nc2sc3c(c2c(=O)n1-c1ccc(OC)cc1)CCN(C(C)=O)C3 | inconclusive: 12.6 µM [cytotoxic, single point]
COc1ccc(S(=O)(=O)NCc2cccn2Cc2cccc(C)c2)cc1 | inconclusive: 20 µM [cytotoxic, single point]
Cc1ccc(Nc2c(-c3ccsc3)nc3c(C)cccn23)cc1 | inconclusive: 15.8 µM [cytotoxic, partial curve, poor fit]
CCc1ccc(NS(=O)(=O)c2cc(-c3cnc(C4CC4)o3)ccc2C)cc1 | inconclusive: 35.5 µM [cytotoxic, single point]
COc1ccc2c(c1)Cc1sc(NC(=O)c3cccc(C)c3)nc1-2 | inactive
COc1ccc(CSc2nc3ccncc3n2CC(=O)Nc2ccc(C)c(F)c2)cc1 | inconclusive: 14.1 µM [cytotoxic, partial curve]
Cc1ccccc1CNC(=O)c1ccc2nc(SCc3ccc(F)cc3)n(C)c2c1 | inconclusive: 31.6 µM [cytotoxic, single point]
CCCCOc1ccc(C(=O)N(Cc2ccc(N(C)C)cc2)Cc2ccco2)cc1 | inconclusive: 22.4 µM [cytotoxic, partial curve, poor fit]
COc1cccc(CN2C(=O)c3ccccc3Sc3ccc(C(=O)OCc4ccco4)cc32)c1 | inconclusive: 0.251 µM [cytotoxic, full curve, poor fit]
c1ccc(Nc2nc(N3CCNCC3)nc(N3CCOCC3)n2)cc1 | inactive
CCOc1ccc(CNC(=O)C2CCCCN2S(=O)(=O)c2ccc(F)cc2)cc1OC (centres undefined) | inactive
Cc1c(Cl)cccc1NS(=O)(=O)c1ccc(-c2cnc(C3CC3)o2)cc1 | inconclusive: 2.82 µM [cytotoxic, partial curve]
Cc1cc(C(=O)Nc2ccc(-n3c(C)nc4ccccc4c3=O)cc2)ccc1[N+](=O)[O-] | inconclusive: 0.794 µM [cytotoxic, full curve, poor fit]

Compound | Potency
CCC(C)Nc1ncnc2c1cnn2-c1ccc(F)cc1 (centres undefined) | inconclusive: 25.1 µM [cytotoxic, single point]
Fc1ccc(C2=CC(c3ccc(F)cc3)n3c(nc4ccccc43)N2)cc1 (centres undefined) | active: 10 µM
O=C(COc1ccccc1)Nc1ccc2nc(SCC(=O)N3CCOCC3)sc2c1 | inconclusive: 0.126 µM [cytotoxic, full curve]
Cc1ccc(NC(=O)Cc2coc3ccc(C(C)C)cc23)cc1Cl | inconclusive: 15.8 µM [cytotoxic, single point]
CCCn1c(SCC(=O)Nc2ccc(C)c(S(=O)(=O)N3CCOCC3)c2)n[nH]c1=O | inactive
CCCCN1C(=O)C(O)(CC(=O)c2ccc(C(C)(C)C)cc2)c2ccccc21 (centres undefined) | active: 20 µM
CC(=O)c1ccc(NC(=O)COC(=O)c2ccccc2N=Nc2ccc(N(C)C)cc2)cc1 | inconclusive: 0.794 µM [cytotoxic, single point]
CCn1c(=O)cc(SCC(=O)NCc2ccc(OC)cc2OC)c2ccccc21 | inactive
Cc1ccc2nc(COc3ccccc3NC(=O)C(C)(C)C)cc(=O)n2c1 | inconclusive: 0.005 µM [cytotoxic, full curve, poor fit]
O=C(Nc1sc2c(c1C(=O)NCc1cccnc1)CCCC2)c1cc(=O)c2ccccc2o1 | inconclusive: 0.0158 µM [cytotoxic, full curve, poor fit]
COc1ccc2sc(N(Cc3cccnc3)C(=O)C3CCCCC3)nc2c1 | inconclusive: 2 µM [cytotoxic, partial curve, poor fit]
Cc1ccc(C)c(N2CCN(C(=O)c3cc4c(=O)n(Cc5ccccc5)ccc4nc3C)CC2)c1 | inactive
CC(C)c1nn2c(=O)cc(COC(=O)c3ccc(NC(=O)C4CCCCC4)cc3)nc2s1 | inconclusive: 0.02 µM [cytotoxic, full curve, poor fit]
CCc1nn(CC(=O)N2CCCCC2)c(=O)c2cc3sc(C)cc3n12 | inactive
Cc1sc2c(c1C)c(=O)n(Cc1ccccc1)c(=O)n2Cc1ccc(F)cc1 | inconclusive: 0.199 µM [cytotoxic, full curve, poor fit]
Cc1cccc(-n2ncc3c(Nc4ccc(C)c(Cl)c4)ncnc32)c1 | inactive
CCc1cccc(NC(=O)C2CCC(CNS(=O)(=O)c3ccc(Br)s3)CC2)c1 (centres undefined) | inconclusive: 11.2 µM [cytotoxic, partial curve]
CCC1=Nc2cc(C(=O)NCCN(CC)CC)ccc2Sc2ccccc21 | inactive
Cc1ccc(S(=O)(=O)Cc2ccc(C(=O)N3CCN(c4cccc(Cl)c4)CC3)o2)cc1 | inconclusive: 6.31 µM [cytotoxic, single point]
COc1cc(/C=C(\C#N)c2nc3ccccc3[nH]2)ccc1OCc1cccc(C(F)(F)F)c1 | inconclusive: 20 µM [cytotoxic, partial curve]
